Among all 45,000 compounds or so, about 65 (0.1%) were called active. The call rests on the fitted dose curve; in most records, active means well fitted activation curve with a large enough effect; inconclusive means small, poorly fitted or top-dose-only effect; inactive means no such curve, though single readings can be large or run the other way. This is one part of the list.

UniProt P54803, sequence (P54803 whole entry, looked up): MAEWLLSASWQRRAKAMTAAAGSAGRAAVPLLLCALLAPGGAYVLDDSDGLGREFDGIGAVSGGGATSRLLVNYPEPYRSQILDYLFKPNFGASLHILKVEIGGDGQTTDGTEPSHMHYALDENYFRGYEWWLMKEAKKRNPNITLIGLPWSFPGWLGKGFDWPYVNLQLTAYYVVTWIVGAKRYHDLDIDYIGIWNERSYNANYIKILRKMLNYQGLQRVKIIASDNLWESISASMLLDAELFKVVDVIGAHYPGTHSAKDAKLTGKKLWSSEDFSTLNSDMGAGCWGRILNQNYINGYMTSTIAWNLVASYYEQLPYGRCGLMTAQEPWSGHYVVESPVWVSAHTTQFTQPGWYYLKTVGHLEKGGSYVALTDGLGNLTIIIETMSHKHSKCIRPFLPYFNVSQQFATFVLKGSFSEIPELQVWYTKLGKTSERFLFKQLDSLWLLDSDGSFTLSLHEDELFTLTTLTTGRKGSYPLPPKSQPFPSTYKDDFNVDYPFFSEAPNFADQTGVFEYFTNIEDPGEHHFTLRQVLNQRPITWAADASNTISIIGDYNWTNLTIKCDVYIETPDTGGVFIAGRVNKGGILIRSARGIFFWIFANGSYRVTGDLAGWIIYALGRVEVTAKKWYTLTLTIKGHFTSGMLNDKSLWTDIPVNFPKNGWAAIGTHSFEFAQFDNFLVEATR

This experiment has as its target Galactocerebrosidase (Homo sapiens) (UniProt P54803). Kind of experiment: A Novel Cell-Based Assay to Identify Small Molecules for B -Galactocerebrosidase. Further: 0% is about no effect; nearly all actives have a fitted effect of over 65% in size. To be noted: 145M-Twi-hGALC-G270D cells (Twitcher mouse brain line with human GALC G270D), HMU-beta-Gal fluorescence, 48 h; series mostly up to 57.5 µM; activation: at the top concentration. The gist of the method:
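Live 145M-Twi cells (Twitcher mouse brain-derived, GALC-null) stably expressing human GALC-G270D, with a wild-type GALC line, were compound-treated. Residual GALC activity was then read as fluorescence from 0.1 mM final HMU-β-gal at pH 5.2; higher signal means activation.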
As to `CCC(C)NC(=O)CSc1nc2cc3c(cc2c(=O)n1CCCC(=O)NCCc1ccc(OC)c(OC)c1)OCO3` (stereo unspecified), the “activation” value is inactive: -4.91%.

Take `COCCNC(=O)c1ccc2c(=O)n(CCc3ccccc3)c(SCC(=O)CC(=O)OC)nc2c1`: the “activation” value is inactive: -12.7%. The value for `COc1cc2c(=O)c(C(=O)c3ccc(C)c(C)c3)cn(Cc3ccccc3F)c2cc1OC` was inactive: -10.3%.

As for `CCc1ccc(CNC(=O)c2c3c(nc4ccccc24)C(=O)N(C2CCCCC2)C3)cc1`, the “activation” value is inactive: -15.6%. For the compound `CCCn1c(=O)c2sccc2n2c(CCCC(=O)N3CCN(c4ccccc4OC)CC3)nnc12`, the “activation” value was inactive: -12.7%.

Turning to `CCOC(=O)c1c(C)[nH]c(C)c1S(=O)(=O)N(C)CC(=O)Nc1cc(Cl)ccc1C`, the “activation” value was inactive: -9.71%. The result for `CC1=C(C(=O)OCc2ccc(C)cc2)C(c2ccccc2F)CC(=O)N1` (stereo unspecified) reads inactive: -1.75%; that for `Cc1ccc2c(=O)cc(C(=O)Nc3sc4c(c3C(=O)NCc3ccco3)CCC4)oc2c1`, inactive: -15.4%. The value for `COc1ccc2c(c1)c(=O)c(C(=O)c1ccccc1)cn2CC(=O)Nc1ccc2c(c1)OCCO2` was inactive: 1.54%; that for `COc1ccccc1NC(=O)CSc1nnc(-c2ccccc2C)o1` was inactive: -19.6%; that for `O=C(NCc1ccccc1F)C1CCN(c2nnc(-n3cccc3)s2)CC1` was inactive: -19.2%. The value for `COc1cc(NC(=O)CCc2c(C)nn(-c3ccc(N4CCOCC4)nn3)c2C)cc(OC)c1OC` was inactive: -4.98%; that for `COc1cccc(N2CCN(c3c4c(nc5nncn35)CCC4)CC2)c1` was inactive: -8.18%; that for `CCC1CCCCN1S(=O)(=O)c1ccc(NC(=O)c2cc(=O)c3c(C)cc(C)cc3o2)cc1` (stereo unspecified) was inactive: -4.34%. Regarding `Cc1cccc(Cn2cc3c(=O)n(CC(=O)Nc4c(C)cccc4C)nc-3c3cc(F)ccc32)c1`, the “activation” value is inactive: -4.36%. The value for `Cc1c(Cl)cccc1NC(=O)CCCn1nc(C)c2sc3ccccc3c2c1=O` was inactive: -8.63%; that for `COCCCNC(=O)NC(CCC(C)C)c1c(-n2cccc2)sc2c1CCN(C)C2` (stereo unspecified) was inactive: -17.5%. The value for `O=C(NCCN1CCN(c2ccccc2)CC1)Nc1cccc(Br)c1` was inactive: -31.4%; that for `CC1(C)CC(=O)c2cc(-c3nc(-c4ccccc4)cs3)c(=O)[nH]c2C1` was inactive: -11.3%; that for `Cc1ccc(NC(=O)C2CCN(S(=O)(=O)c3c(C)noc3C)CC2)cc1` was inactive: -16.7%. The result for `CC(C)Sc1nc2sc3c(c2c(=O)n1Cc1ccccc1)CCCC3` reads inactive: -20.3%; that for `CCOc1ccc(CCNC(=O)CCc2c(C)nc3c(c(C)nn3-c3ccc(C)c(C)c3)c2C)cc1`, inactive: -12%; that for `COc1ccc(Nc2nc(-c3cccc(Cl)c3)c3c(n2)-c2ccccc2OC3)cc1`, inactive: -8.71%. Consider `CCOc1ccccc1CNC(=O)Cc1ccc(NC(=O)N2CCCCc3ccccc32)cc1`, for which the “activation” value was inactive: -17%.

With `CCOc1ccc(NC(=O)CSc2nc3ccsc3c(=O)n2C(C)CC)cc1` (stereo unspecified), the “activation” value was inactive: -10.4%. The value for `CCOc1cccc(Nc2nn(-c3ccc(OC(F)(F)F)cc3)nc2C(C)=O)c1` was inactive: -12.5%.

Source of the values: PubChem BioAssay AID1159614 (National Center for Advancing Translational Sciences (NCATS), 2016).
